# Experimental data: the supplement of paper PMC8728848
# The list shows a part of the results.
# B1: FBG3 (Homo sapiens), Q9H4M3 (protein)
# chain: MAVGNINELPENILLELFTHVPARQLLLNCRLVCSLWRDLIDLVTLWKRKCLREGFITEDWDQPVADWKIFYFLRSLHRNLLHNPCAEEGFEFWSLDVNGGDEWKVEDLSRDQRKEFPNDQVKKYFVTSYYTCLKSQVVDLKAEGYWEELMDTTRPDIEVKDWFAARPDCGSKYQLCVQLLSSAHAPLGTFQPDPATIQQKSDAKWREVSHTFSNYPPGVRYIWFQHGGVDTHYWAGWYGPRVTNSSITIGPPLP
# Assays:
# Test in all cases: glycan array binding signal (z-score within array); higher = stronger binding
# Conditions in all cases: glycan notation: IUPAC condensed, linker removed
# [1] = target: Fuc(a1-2)[GalNAc(a1-3)]Gal(b1-4)Glc
# How it was run: (§1)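 From the Consortium for Functional Glycomics database, 3228 arrays were curated, keeping only those whose protein sequence was available. Binding is given as a within-array Z-score averaged across arrays sharing a protein sequence and across linkers. Negative Z-scores can be read as non-binding.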
# [2] = target: Fuc(a1-2)[GalNAc(a1-3)]Gal(b1-4)GlcNAc
# How it was run: as §1
# [3] = target: Fuc(a1-2)[GalNAc(a1-3)]Gal(b1-4)[Fuc(a1-3)]GlcNAc
# How it was run: as §1
# [4] = target: Fuc(a1-2)[GalNAc(a1-4)]Gal(b1-4)GlcNAc
# How it was run: as §1
# [5] = target: Fuc(a1-2)[GalNAc(b1-3)]Gal
# How it was run: as §1
# [6] = target: Fuc(a1-3)GlcNAc
# How it was run: as §1
# [7] = target: Fuc(a1-3)[Gal(b1-4)]Glc6S
# How it was run: as §1
# [8] = target: Fuc(a1-3)[Gal(b1-4)]GlcNAc
# How it was run: as §1
# [9] = target: Fuc(a1-3)[Gal(b1-4)]GlcNAc(b1-3)Gal(b1-3)[Fuc(a1-4)]GlcNAc
# How it was run: as §1
# [10] = target: Fuc(a1-3)[Gal(b1-4)]GlcNAc(b1-3)Gal(b1-4)[Fuc(a1-3)]GlcNAc
# How it was run: as §1
# [11] = target: Fuc(a1-3)[Gal(b1-4)]GlcNAc(b1-3)Gal(b1-4)[Fuc(a1-3)]GlcNAc(b1-3)Gal(b1-4)[Fuc(a1-3)]GlcNAc
# How it was run: as §1
# [12] = target: Fuc(a1-3)[Gal(b1-4)]GlcNAc(b1-4)Gal(b1-4)[Fuc(a1-3)]GlcNAc
# How it was run: as §1
# [13] = target: Fuc(a1-3)[Gal(b1-4)]GlcNAc(b1-4)Gal(b1-4)[Fuc(a1-3)]GlcNAc(b1-4)Gal(b1-4)[Fuc(a1-3)]GlcNAc
# How it was run: as §1
# [14] = target: Fuc(a1-3)[Gal(b1-4)]GlcNAc6S
# How it was run: as §1
# [15] = target: Fuc(a1-3)[Gal3S(b1-4)]Glc
# How it was run: as §1
# [16] = target: Fuc(a1-3)[Gal3S(b1-4)]Glc6S
# How it was run: as §1
# [17] = target: Fuc(a1-3)[Gal3S(b1-4)]GlcNAc
# How it was run: as §1
# [18] = target: Fuc(a1-3)[Gal3S(b1-4)]GlcNAc6S
# How it was run: as §1
# [19] = target: Fuc(a1-3)[GalNAc(b1-4)]Gal(b1-4)GlcNAc
# How it was run: as §1
# [20] = target: Fuc(a1-4)GlcNAc
# How it was run: as §1
# [21] = target: Fuc(b1-3)GlcNAc
# How it was run: as §1
# [22] = target: Gal(a1-2)Gal
# How it was run: as §1
# [23] = target: Gal(a1-3)Gal
# How it was run: as §1
# [24] = target: Gal(a1-3)Gal(b1-3)Glc
# How it was run: as §1
# [25] = target: Gal(a1-3)Gal(b1-3)GlcNAc
# How it was run: as §1
# [26] = target: Gal(a1-3)Gal(b1-4)Glc
# How it was run: as §1
# [27] = target: Gal(a1-3)Gal(b1-4)GlcNAc
# How it was run: as §1
# [28] = target: Gal(a1-3)Gal(b1-4)[Fuc(a1-3)]GalNAc
# How it was run: as §1
# [29] = target: Gal(a1-3)Gal(b1-4)[Fuc(a1-3)]GlcNAc
# How it was run: as §1
# [30] = target: Gal(a1-3)GalNAc
# How it was run: as §1
# [31] = target: Gal(a1-3)GlcNAc
# How it was run: as §1
# [32] = target: Gal(a1-3)[Gal(a1-4)]Gal(b1-4)GlcNAc
# How it was run: as §1
# [33] = target: Gal(a1-4)Gal(b1-4)Gal
# How it was run: as §1
# [34] = target: Gal(a1-4)Gal(b1-4)GalNAc
# How it was run: as §1
# [35] = target: Gal(a1-4)Gal(b1-4)Glc
# How it was run: as §1
# [36] = target: Gal(a1-4)Gal(b1-4)GlcNAc
# How it was run: as §1
# [37] = target: Gal(a1-4)GlcNAc
# How it was run: as §1
# [38] = target: Gal(a1-6)Glc
# How it was run: as §1
# [39] = target: Gal(b1-2)Gal
# How it was run: as §1
# [40] = target: Gal(b1-3)Gal
# How it was run: as §1
# [41] = target: Gal(b1-3)GalNAc
# How it was run: as §1
# [42] = target: Gal(b1-3)GalNAc(b1-3)Gal(a1-4)Gal(b1-4)Glc
# How it was run: as §1
# [43] = target: Gal(b1-3)GalNAc(b1-3)Gal(b1-4)Glc
# How it was run: as §1
# [44] = target: Gal(b1-3)GalNAc(b1-3)Gal(b1-4)GlcNAc
# How it was run: as §1
# [45] = target: Gal(b1-3)GalNAc(b1-4)Gal(b1-4)Glc
# How it was run: as §1
# [46] = target: Gal(b1-3)GalNAc(b1-4)[Neu5Ac(a2-3)]Gal(b1-4)Glc
# How it was run: as §1
# [47] = target: Gal(b1-3)GlcNAc
# How it was run: as §1
# [48] = target: Gal(b1-3)GlcNAc(b1-3)Gal(b1-3)GlcNAc
# How it was run: as §1
# [49] = target: Gal(b1-3)GlcNAc(b1-3)Gal(b1-4)Glc
# How it was run: as §1
# [50] = target: Gal(b1-3)[Fuc(a1-4)]GlcNAc
# How it was run: as §1
# [51] = target: Gal(b1-3)[Fuc(a1-4)]GlcNAc(b1-3)Gal(b1-3)[Fuc(a1-4)]GlcNAc
# How it was run: as §1
# [52] = target: Gal(b1-3)[Fuc(a1-4)]GlcNAc(b1-3)Gal(b1-4)GlcNAc
# How it was run: as §1
# [53] = target: Gal(b1-3)[Fuc(a1-4)]GlcNAc(b1-3)Gal(b1-4)[Fuc(a1-3)]GlcNAc
# How it was run: as §1
# [54] = target: Gal(b1-3)[GlcNAc(b1-6)]GalNAc
# How it was run: as §1
# [55] = target: Gal(b1-3)[GlcNAc(b1-6)]GlcNAc
# How it was run: as §1
# [56] = target: Gal(b1-3)[Neu5Ac(a2-6)]GalNAc
# How it was run: as §1
# [57] = target: Gal(b1-3)[Neu5Ac(a2-6)]GlcNAc
# How it was run: as §1
# [58] = target: Gal(b1-3)[Neu5Ac(a2-6)]GlcNAc(a1-4)Gal(b1-4)Glc
# How it was run: as §1
# [59] = target: Gal(b1-3)[Neu5Ac(a2-6)]GlcNAc(b1-4)Gal(b1-4)Glc
# How it was run: as §1
# [60] = target: Gal(b1-3)[Neu5Ac(b2-6)]GalNAc
# How it was run: as §1
# [61] = target: Gal(b1-3)[Neu5Ac(b2-6)]GlcNAc
# How it was run: as §1
# [62] = target: Gal(b1-4)GalNAc(a1-3)[Fuc(a1-2)]Gal(b1-4)GlcNAc
# How it was run: as §1
# [63] = target: Gal(b1-4)GalNAc(b1-3)[Fuc(a1-2)]Gal(b1-4)GlcNAc
# How it was run: as §1
# [64] = target: Gal(b1-4)Glc
# How it was run: as §1
# [65] = target: Gal(b1-4)Glc6S
# How it was run: as §1
# [66] = target: Gal(b1-4)GlcNAc
# How it was run: as §1
# [67] = target: Gal(b1-4)GlcNAc(b1-2)Man(a1-3)[Gal(b1-4)GlcNAc(b1-2)Man(a1-6)]Man(b1-4)GlcNAc(b1-4)GlcNAc
# How it was run: as §1
# [68] = target: Gal(b1-4)GlcNAc(b1-3)Gal(b1-3)GlcNAc
# How it was run: as §1
# [69] = target: Gal(b1-4)GlcNAc(b1-3)Gal(b1-4)Glc
# How it was run: as §1
# [70] = target: Gal(b1-4)GlcNAc(b1-3)Gal(b1-4)GlcNAc
# How it was run: as §1
# [71] = target: Gal(b1-4)GlcNAc(b1-3)Gal(b1-4)GlcNAc(b1-3)Gal(b1-4)GlcNAc
# How it was run: as §1
# [72] = target: Gal(b1-4)GlcNAc(b1-3)Gal(b1-4)[Fuc(a1-3)]GlcNAc(b1-3)Gal(b1-4)[Fuc(a1-3)]GlcNAc
# How it was run: as §1
# [73] = target: Gal(b1-4)GlcNAc(b1-3)GalNAc
# How it was run: as §1
# [74] = target: Gal(b1-4)GlcNAc(b1-3)[Gal(b1-4)GlcNAc(b1-6)]GalNAc
# How it was run: as §1
# [75] = target: Gal(b1-4)GlcNAc(b1-6)GalNAc
# How it was run: as §1
binder,measurement,setting,value
B1,glycan array binding signal (z-score),[1],0.043
same,glycan array binding signal (z-score),[2],-0.26
same,glycan array binding signal (z-score),[3],0.422
same,glycan array binding signal (z-score),[4],-0.319
same,glycan array binding signal (z-score),[5],-0.651
same,glycan array binding signal (z-score),[6],-0.38
same,glycan array binding signal (z-score),[7],-0.149
same,glycan array binding signal (z-score),[8],-0.406
same,glycan array binding signal (z-score),[9],-0.329
same,glycan array binding signal (z-score),[10],0.175
same,glycan array binding signal (z-score),[11],-0.396
same,glycan array binding signal (z-score),[12],1.09
same,glycan array binding signal (z-score),[13],-0.209
same,glycan array binding signal (z-score),[14],0.085
same,glycan array binding signal (z-score),[15],-0.005
same,glycan array binding signal (z-score),[16],0.422
same,glycan array binding signal (z-score),[17],-0.396
same,glycan array binding signal (z-score),[18],1.94
same,glycan array binding signal (z-score),[19],-0.359
same,glycan array binding signal (z-score),[20],-0.244
same,glycan array binding signal (z-score),[21],0.619
same,glycan array binding signal (z-score),[22],-0.197
same,glycan array binding signal (z-score),[23],-0.229
same,glycan array binding signal (z-score),[24],0.264
same,glycan array binding signal (z-score),[25],-0.548
same,glycan array binding signal (z-score),[26],-0.57
same,glycan array binding signal (z-score),[27],-0.291
same,glycan array binding signal (z-score),[28],0.081
same,glycan array binding signal (z-score),[29],-0.174
same,glycan array binding signal (z-score),[30],-0.355
same,glycan array binding signal (z-score),[31],-0.198
same,glycan array binding signal (z-score),[32],-0.433
same,glycan array binding signal (z-score),[33],-0.387
same,glycan array binding signal (z-score),[34],-0.248
same,glycan array binding signal (z-score),[35],-0.153
same,glycan array binding signal (z-score),[36],-0.338
same,glycan array binding signal (z-score),[37],-0.024
same,glycan array binding signal (z-score),[38],1.32
same,glycan array binding signal (z-score),[39],0.09
same,glycan array binding signal (z-score),[40],-0.052
same,glycan array binding signal (z-score),[41],0.136
same,glycan array binding signal (z-score),[42],-0.529
same,glycan array binding signal (z-score),[43],-0.288
same,glycan array binding signal (z-score),[44],-0.569
same,glycan array binding signal (z-score),[45],-0.351
same,glycan array binding signal (z-score),[46],-0.368
same,glycan array binding signal (z-score),[47],-0.353
same,glycan array binding signal (z-score),[48],-0.398
same,glycan array binding signal (z-score),[49],-0.183
same,glycan array binding signal (z-score),[50],-0.387
same,glycan array binding signal (z-score),[51],-0.007
same,glycan array binding signal (z-score),[52],-0.363
same,glycan array binding signal (z-score),[53],-0.499
same,glycan array binding signal (z-score),[54],-0.256
same,glycan array binding signal (z-score),[55],-0.582
same,glycan array binding signal (z-score),[56],0.434
same,glycan array binding signal (z-score),[57],-0.145
same,glycan array binding signal (z-score),[58],-0.377
same,glycan array binding signal (z-score),[59],-0.197
same,glycan array binding signal (z-score),[60],-0.325
same,glycan array binding signal (z-score),[61],-0.544
same,glycan array binding signal (z-score),[62],-0.584
same,glycan array binding signal (z-score),[63],-0.706
same,glycan array binding signal (z-score),[64],0.009
same,glycan array binding signal (z-score),[65],0.065
same,glycan array binding signal (z-score),[66],0.126
same,glycan array binding signal (z-score),[67],-0.153
same,glycan array binding signal (z-score),[68],0.018
same,glycan array binding signal (z-score),[69],-0.463
same,glycan array binding signal (z-score),[70],-0.309
same,glycan array binding signal (z-score),[71],-0.667
same,glycan array binding signal (z-score),[72],-0.293
same,glycan array binding signal (z-score),[73],-0.077
same,glycan array binding signal (z-score),[74],-0.345
same,glycan array binding signal (z-score),[75],0.02
